# The campaign covered roughly 410,000 compounds. About 530 (0.13%) were called active. Inconclusive means that the source gave no clear call. Such entries were picked first, then a sample of the others. The call rests on the fitted dose curve; in most records, active means well fitted inhibition curve with a large enough effect; inconclusive means small, poorly fitted or top-dose-only effect, or another doubt; inactive means no such curve, though single readings can be large or run the other way. A potency beside an inconclusive call is a rough fit, not a confirmed value.
# Assay: qHTS of GLP-1 Receptor Inverse Agonists: Cytotox Screen
# Settings: HEK293 cAMP-luciferase reporter cells, luminescence, 24 h; activity change, negative = inhibition: at 38.3 µM (top of the series) unless noted
# How it was run: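 Luminescence readout: signal drop marks cytotoxicity. Plated cells grew 12 h at 37 °C, 5% CO2, received 23 nL compound for 24 h, then got luciferase reagent, read after 12 min at RT.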
# On the % scale 0 is the no-effect control and ±100 the full control effect; potency means the concentration at half of the fitted maximal effect.
Structure (SMILES),"activity change, negative = inhibition",Potency
S=C(Nc1ccc(Br)cc1)N1CCN(c2ccccn2)CC1,inactive: 0.689%,
COc1ccccc1C1Nc2c(sc3nc(C)cc(C)c23)C(=O)N1c1ccccc1 (stereo not given),inactive: 34.6%,
COc1ccc(-n2ncc(C(C)NS(=O)(=O)c3ccc(C(C)=O)cc3)c2C)cc1 (stereo not given),inactive: 2.61%,
CC1CCCN(CCOCCOc2ccccc2-c2ccccc2)C1 (stereo not given),,"inconclusive: 28.2 µM [inhibitor, single point]"
COc1cc(/C=C2\SC(=S)N(NS(=O)(=O)c3ccccc3)C2=O)cc(OC)c1OC,,"inconclusive: 8.91 µM [inhibitor, partial curve, poor fit]"
CCC(=O)N(Cc1ccc(C)cc1)Cc1cc2cc3c(cc2[nH]c1=O)OCO3,inactive: 2.86%,
C=CCc1cccc2cc(C(=O)NCCc3c(C)[nH]c4c(C)cccc34)c(=O)oc12,inactive: -6.6%,
COc1ccccc1/C=C1\SC(=S)N(CC(=O)NC2CCS(=O)(=O)C2)C1=O (stereo not given),,"inconclusive: 28.2 µM [inhibitor, single point]"
COc1ccc(-c2nnc(NC(=O)c3ccc(F)cc3)o2)cc1,inactive: 1.62%,
CNC(=S)N(CCc1c(C)[nH]c2ccc(C)cc12)Cc1cccs1,,"inconclusive: 3.98 µM [inhibitor, full curve]"
Cc1ccccc1-c1cc(-c2ccccc2O)n[nH]1,,"inconclusive: 28.2 µM [inhibitor, single point]"
COc1ccc(CNC(=O)CC(c2ccc(OC)cc2)N2Cc3ccccc3C2=O)cc1 (stereo not given),inactive: -4.18%,
COc1ccc(-c2nc3ccccn3c2CN2CCN(c3ccccc3F)CC2)cc1,,"inconclusive: 28.2 µM [inhibitor, single point]"
COc1cc(C(=O)Nc2ccc3nc(N4CCN(C)CC4)cc(C)c3c2)cc(OC)c1OC,,"inconclusive: 28.2 µM [inhibitor, single point]"
Cc1cc(NCCCCCCCNc2cc(C)nc3cc([N+](=O)[O-])ccc23)c2ccc([N+](=O)[O-])cc2n1,,"inconclusive: 11.2 µM [inhibitor, partial curve, poor fit]"
O=C(c1cc(-c2cccc(Br)c2)nc2ccccc12)N1CCCC1,inactive: 1.81%,
C/C(=N\NC(=S)Nc1ccccc1C)C1Cc2ccccc2C(=O)O1 (stereo not given),,"inconclusive: 5.62 µM [inhibitor, partial curve, poor fit]"
Cc1ccc2[nH]c(=S)cc(C)c2c1,,"inconclusive: 28.2 µM [inhibitor, single point]"
CCCCNC(=S)Nc1ccc(Oc2ccccc2)cc1,,"inconclusive: 25.1 µM [inhibitor, single point]"
Cc1ccc(C)c(N2CCN(CCCNC(=O)c3cnn(-c4ccc(F)cc4)c3C3CCN(C(=O)OC(C)(C)C)CC3)CC2)c1,inactive: -4.41%,
COC(=O)c1ccc(N2CN=C(c3ccc(C)cc3)NC2=S)cc1,inactive: -16.6%,
O=C(CN1CCN(C(=O)c2ccccc2)CC1)Nc1ccc(Cl)cc1F,inactive: 5.3%,
CC1(C)CC2=C(CO1)C(=S)NC(c1ccccc1)N2CC1CCCO1 (stereo not given),,"inconclusive: 28.2 µM [inhibitor, single point]"

Structure (SMILES),"activity change, negative = inhibition",Potency
CCn1cc(C(=O)NCc2cccc(F)c2)c(=O)c2cc(F)c(N3CCN(C(=O)c4ccco4)CC3)cc21,,"inconclusive: 20 µM [inhibitor, single point]"
CCOc1ncccc1C(=O)OC(C)C(=O)Nc1ccc(Cl)cn1 (stereo not given),inactive: 3.46%,
COc1ccc(NC(=O)C2CCCN(c3c4c(nc5ncnn35)CCC4)C2)cc1 (stereo not given),,"inconclusive: 7.08 µM [inhibitor, partial curve, poor fit]"
O=C(CCS(=O)(=O)c1ccccc1)N(Cc1cccnc1)c1nc2ccc(F)cc2s1,inactive: 12.4%,
C=C1C(=O)C=C2CN(C(=O)c3ccccc3)[C@@](Cc3ccc(F)cc3)(C(=O)OC)[C@@H]12,,"inconclusive: 11.2 µM [inhibitor, partial curve]"
CC(C1CC1)N(Cc1ccccc1)C(=S)Nc1ccccc1Cl (stereo not given),,"inconclusive: 28.2 µM [inhibitor, single point]"
Cc1noc(/C=C/c2ccccc2F)c1S(=O)(=O)N1CCC(C(=O)NCC(C)c2ccccc2)CC1 (stereo not given),inactive: 5.52%,
S=C(NCc1ccccc1)N1CCN(c2cccc(Cl)c2)CC1,inactive: 11.9%,
Cc1ccc(-c2ccccc2NC(=O)CS(=O)CC(=O)Nc2ccc(C)c(Cl)c2)o1 (stereo not given),,"inconclusive: 4.47 µM [inhibitor, full curve, poor fit]"
Cn1ccsc1=NC(=O)c1ccc(S(C)(=O)=O)c([N+](=O)[O-])c1,,"inconclusive: 14.1 µM [inhibitor, single point]"
Cc1cccc(C)c1NC(=O)c1c(-c2ccccc2)noc1C,,"inconclusive: 14.1 µM [inhibitor, single point]"
CCCCC1=CC2=C(c3ccco3)C(=O)C(C)(OC(=O)c3ccc(OC)cc3)C(=O)C2=CN1Cc1ccco1 (stereo not given),,"inconclusive: 28.2 µM [inhibitor, single point]"
CC(=O)Nc1sc2c(c1CN1CCN(c3ccc(F)cc3)CC1)CCCC2,inactive: -1.13%,
Cc1cccc(C)c1C(O)c1ncc(-c2ccc(Cl)cc2)[nH]1 (stereo not given),inactive: 3.19%,
CCC(C)c1ccc(NC(=S)NCCn2cc(Cl)cn2)cc1 (stereo not given),,"inconclusive: 28.2 µM [inhibitor, single point]"
C[C@]1(C(=O)NCCCNc2ncc(C(F)(F)F)cc2Cl)C=C[C@@H](Cc2ccccc2)N1C(=O)c1ccccc1,,"inconclusive: 3.16 µM [inhibitor, partial curve, poor fit]"
CC(C)CC1=NN2C(=N)/C(=C\c3coc4ccccc4c3=O)C(=O)N=C2S1,inactive: 2%,
COC(=O)c1cccnc1NC(=S)NC(C)C,,"inconclusive: 28.2 µM [inhibitor, single point]"
Cc1ccc(CNC(=O)Cc2csc3ccccc23)cc1,inactive: 5.23%,
COc1cc(OC)cc(-c2nnc(NC(=O)Cc3ccc(F)cc3)o2)c1,inactive: 4.15%,
[N-]=[N+]=NC[C@H](Cc1ccccc1)N1CCN(Cc2ccccc2)CCC1=O,,"inconclusive: 31.6 µM [inhibitor, partial curve, poor fit]"
COc1ccc(N(C)C2=NS(=O)(=O)c3ccccc32)cc1,,"inconclusive: 15.8 µM [inhibitor, partial curve, poor fit]"
